# Test results: the supplement of paper PMC8728848
# The list shows a part of the results.
# B1: CLEC7A (Homo sapiens), Q9BXN2 (protein)
# chain: MEYHPDLENLDEDGYTQLHFDSQSNTRIAVVSEKGSCAASPPWRLIAVILGILCLVILVIAVVLGTMAIWRSNSGSNTLENGYFLSRNKENHSQPTQSSLEDSVTPTKAVKTTGVLSSPCPPNWIIYEKSCYLFSMSLNSWDGSKRQCWQLGSNLLKIDSSNELGFIVKQVSSQPDNSFWIGLSRPQTEVPWLWEDGSTFSSNLFQIRTTATQENPSPNCVWIHVSVIYDQLCSVPSYSICEKKFSM
# Columns and labels:
# Assay in all cases: glycan array binding signal (z-score within array); higher = stronger binding
# Details in all cases: glycan notation: IUPAC condensed, linker removed
# [1] = target: Gal(b1-4)GlcNAc(b1-3)GalNAc
# Method in brief: (§1)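 Arrays were curated from the Consortium for Functional Glycomics database, 3228 in total, and kept only where the protein sequence was available. Binding is expressed as a within-array Z-score. This score was averaged across arrays of the same protein sequence at different concentrations or buffers and across linkers, and negative values can be read as non-binding.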
# [2] = target: Gal(b1-4)GlcNAc(b1-3)[Gal(b1-4)GlcNAc(b1-6)]GalNAc
# Method in brief: as §1
# [3] = target: Gal(b1-4)GlcNAc(b1-6)Gal(b1-4)GlcNAc(b1-6)GalNAc
# Method in brief: as §1
# [4] = target: Gal(b1-4)GlcNAc(b1-6)GalNAc
# Method in brief: as §1
# [5] = target: Gal(b1-4)GlcNAc(b1-6)[Gal(b1-3)]GalNAc
# Method in brief: as §1
# Gal3S(b1-3)GalNAc = target: Gal3S(b1-3)GalNAc
# Method in brief: as §1
# Gal3S(b1-3)GlcNAc = target: Gal3S(b1-3)GlcNAc
# Method in brief: as §1
# [6] = target: Gal3S(b1-3)[Fuc(a1-4)]GlcNAc
# Method in brief: as §1
# Gal3S(b1-4)Glc = target: Gal3S(b1-4)Glc
# Method in brief: as §1
# Gal3S(b1-4)Glc6S = target: Gal3S(b1-4)Glc6S
# Method in brief: as §1
# Gal3S(b1-4)GlcNAc = target: Gal3S(b1-4)GlcNAc
# Method in brief: as §1
# Gal3S(b1-4)GlcNAc6S = target: Gal3S(b1-4)GlcNAc6S
# Method in brief: as §1
# Gal3S6S(b1-4)GlcNAc = target: Gal3S6S(b1-4)GlcNAc
# Method in brief: as §1
# Gal3S6S(b1-4)GlcNAc6S = target: Gal3S6S(b1-4)GlcNAc6S
# Method in brief: as §1
# Gal4S(b1-4)GlcNAc = target: Gal4S(b1-4)GlcNAc
# Method in brief: as §1
# Gal4S6S(b1-4)GlcNAc = target: Gal4S6S(b1-4)GlcNAc
# Method in brief: as §1
# Gal6S(b1-4)Glc = target: Gal6S(b1-4)Glc
# Method in brief: as §1
# Gal6S(b1-4)Glc6S = target: Gal6S(b1-4)Glc6S
# Method in brief: as §1
# Gal6S(b1-4)GlcNAc = target: Gal6S(b1-4)GlcNAc
# Method in brief: as §1
# GalNAc(a1-3)Gal = target: GalNAc(a1-3)Gal
# Method in brief: as §1
# GalNAc(a1-3)GalNAc = target: GalNAc(a1-3)GalNAc
# Method in brief: as §1
# [7] = target: GalNAc(b1-3)Gal(a1-4)Gal(b1-4)GlcNAc
# Method in brief: as §1
# GalNAc(b1-3)GalNAc = target: GalNAc(b1-3)GalNAc
# Method in brief: as §1
# GalNAc(b1-4)GlcNAc = target: GalNAc(b1-4)GlcNAc
# Method in brief: as §1
# Glc(a1-4)Glc = target: Glc(a1-4)Glc
# Method in brief: as §1
# Glc(a1-6)Glc(a1-6)Glc = target: Glc(a1-6)Glc(a1-6)Glc
# Method in brief: as §1
# Glc(b1-4)Glc = target: Glc(b1-4)Glc
# Method in brief: as §1
# Glc(b1-6)Glc = target: Glc(b1-6)Glc
# Method in brief: as §1
# GlcA(b1-3)Gal = target: GlcA(b1-3)Gal
# Method in brief: as §1
# GlcA(b1-6)Gal = target: GlcA(b1-6)Gal
# Method in brief: as §1
# [8] = target: GlcNAc(a1-3)Gal(b1-4)GlcNAc
# Method in brief: as §1
# [9] = target: GlcNAc(a1-6)Gal(b1-4)GlcNAc
# Method in brief: as §1
# [10] = target: GlcNAc(b1-2)Gal(b1-3)GalNAc
# Method in brief: as §1
# [11] = target: GlcNAc(b1-2)Man(a1-3)[GlcNAc(b1-2)Man(a1-6)]Man(b1-4)GlcNAc(b1-4)GlcNAc
# Method in brief: as §1
# GlcNAc(b1-3)Gal = target: GlcNAc(b1-3)Gal
# Method in brief: as §1
# [12] = target: GlcNAc(b1-3)Gal(b1-3)GalNAc
# Method in brief: as §1
# GlcNAc(b1-3)Gal(b1-4)Glc = target: GlcNAc(b1-3)Gal(b1-4)Glc
# Method in brief: as §1
binder,measurement,setting,value
B1,glycan array binding signal (z-score),[1],0.267
same,glycan array binding signal (z-score),[2],-0.587
same,glycan array binding signal (z-score),[3],-0.596
same,glycan array binding signal (z-score),[4],-1.14
same,glycan array binding signal (z-score),[5],-0.032
same,glycan array binding signal (z-score),Gal3S(b1-3)GalNAc,0.674
same,glycan array binding signal (z-score),Gal3S(b1-3)GlcNAc,0.073
same,glycan array binding signal (z-score),[6],0.601
same,glycan array binding signal (z-score),Gal3S(b1-4)Glc,-0.123
same,glycan array binding signal (z-score),Gal3S(b1-4)Glc6S,1.16
same,glycan array binding signal (z-score),Gal3S(b1-4)GlcNAc,0.507
same,glycan array binding signal (z-score),Gal3S(b1-4)GlcNAc6S,1.21
same,glycan array binding signal (z-score),Gal3S6S(b1-4)GlcNAc,0.674
same,glycan array binding signal (z-score),Gal3S6S(b1-4)GlcNAc6S,5.19
same,glycan array binding signal (z-score),Gal4S(b1-4)GlcNAc,0.122
same,glycan array binding signal (z-score),Gal4S6S(b1-4)GlcNAc,0.177
same,glycan array binding signal (z-score),Gal6S(b1-4)Glc,-0.519
same,glycan array binding signal (z-score),Gal6S(b1-4)Glc6S,0.699
same,glycan array binding signal (z-score),Gal6S(b1-4)GlcNAc,-0.797
same,glycan array binding signal (z-score),GalNAc(a1-3)Gal,-0.246
same,glycan array binding signal (z-score),GalNAc(a1-3)GalNAc,-0.246
same,glycan array binding signal (z-score),[7],0.773
same,glycan array binding signal (z-score),GalNAc(b1-3)GalNAc,-0.124
same,glycan array binding signal (z-score),GalNAc(b1-4)GlcNAc,0.478
same,glycan array binding signal (z-score),Glc(a1-4)Glc,-0.126
same,glycan array binding signal (z-score),Glc(a1-6)Glc(a1-6)Glc,-0.407
same,glycan array binding signal (z-score),Glc(b1-4)Glc,0.288
same,glycan array binding signal (z-score),Glc(b1-6)Glc,-0.161
same,glycan array binding signal (z-score),GlcA(b1-3)Gal,-0.277
same,glycan array binding signal (z-score),GlcA(b1-6)Gal,0.628
same,glycan array binding signal (z-score),[8],1.09
same,glycan array binding signal (z-score),[9],-1.17
same,glycan array binding signal (z-score),[10],-0.05
same,glycan array binding signal (z-score),[11],-0.366
same,glycan array binding signal (z-score),GlcNAc(b1-3)Gal,-0.583
same,glycan array binding signal (z-score),[12],-0.989
same,glycan array binding signal (z-score),GlcNAc(b1-3)Gal(b1-4)Glc,-0.106
